In the RNAGym collection of RNA variant scans (doi:10.7554/elife.90254):
Read counts are not given, so values of variants with three or more changes are uncertain.

B1: OR4K15 (parent)
chain: GUUAACGGUCAUAGGCCAUGGAAACUAGGAGCACCAUUUCGCUGCCAGUGAAGAAAUGAACAAAGAAAAUCUGGGCCAGGCAGGCAUCAAAAGAAAUAGUCUUGCGCUCAACCAGAAAGUCUGUAAUCAUUUUAAGGGUA

Variants of: B1
Experiment: self-cleavage, relative activity (ratio to wild type); higher = more cleavage; in vitro, sequencing; the parent is a self-cleaving ribozyme
Variant G31A A33C U57C U103C A134G G137A has a self-cleavage of 0.15. Work on G53U C81U A90G A110G yielded a self-cleavage of 0.02. Variant U43A C81U G83U G84A has a self-cleavage of 0.08. In the case of U37C A55G A126G, the self-cleavage is reported as 0.76. U37C U43C A56U gave a self-cleavage of 2.11. C10A A56G A96G gave a self-cleavage of 0.65. Variant U38G U49A A56G A68G has a self-cleavage of 1.38. U43C U103C A118G gave a self-cleavage of 0.61. In the case of A89G A126G U130C, the self-cleavage is reported as 0.68. Work on C32U A52G U122C yielded a self-cleavage of 1.46. U12A C85U A89G gave a self-cleavage of 1.35. In the case of A5G A23G A36G U120A, the self-cleavage is reported as 1.3. U26C A59G A117U gave a self-cleavage of 1.64. In the case of U12C U19C A33G A126G, the self-cleavage is reported as 0.37. With A91G U132C A140G the self-cleavage was 0.97. With A47U U57C A92G U122C the self-cleavage was 0.28. With U3C C34U U43C A52G A59U A64G U70C the self-cleavage was 0.61. For U49A A90G A92U, the self-cleavage was 0.89. A33U A64G A92G C105U U120C gave a self-cleavage of 0.15. With A22U A78U A111U the self-cleavage was 0.03. A18G A33G A59G A82U C88U gave a self-cleavage of 0.1. Variant A13G A51U A95G U124C has a self-cleavage of 0.7. Work on U2C A92G U97C yielded a self-cleavage of 1.3. Variant A62U A110C A118G has a self-cleavage of 0.2. A62G A114G U124C gave a self-cleavage of 0.11. For A11U A54G A92G, the self-cleavage was 0.84. With G7A U39C A51G G84U the self-cleavage was 0.43. With A23U G31C G104A the self-cleavage was 0.01. A36U A60G A135G gave a self-cleavage of 1.78. In the case of U39C U57C A66G A67G A117G U124A, the self-cleavage is reported as 0.49. For A18U A22G A69G U72G C101U U130C, the self-cleavage was 0.08. A24G A52G U87C A89G A118G gave a self-cleavage of 0.42. For A54G A89G A92G, the self-cleavage was 1.28. For U38C A56G U70C U130C, the self-cleavage was 1.23. Work on C17U U19C A116G A129C G138U yielded a self-cleavage of 0.06. Work on A60C U122C A129G yielded a self-cleavage of 1.06. In the case of A22U A78G A135G, the self-cleavage is reported as 0.23. In the case of A54G C76U A140G, the self-cleavage is reported as 0.13. In the case of A63G A69G U87C, the self-cleavage is reported as 1.96. U12C U57C A67G C107U A116U U130C showed a self-cleavage of 0.01. Work on G29A A54G A117G yielded a self-cleavage of 1.76. For C35U U37C A68G, the self-cleavage was 1.58. For A23G A63G U72G, the self-cleavage was 0.13. With G7A U49C A56G U57A A59G the self-cleavage was 1.02. Work on U26C U43C A51U U131C yielded a self-cleavage of 0.94. In the case of U9G U72C A134G, the self-cleavage is reported as 0.2. U19G A55G U122C U130C gave a self-cleavage of 1.12. A55G A86G A95G showed a self-cleavage of 1.84. Variant U19A A118G U122G has a self-cleavage of 1.67. A47C A86G U103C gave a self-cleavage of 0.26. For A18G C34U A55G A118G, the self-cleavage was 0.97. Variant A69G A126G U130C has a self-cleavage of 0.51. A4G A13U U57A A95U showed a self-cleavage of 0.47. A66G A69G A110G showed a self-cleavage of 0.2. For A24C A36G A51G U120A U130C A134G, the self-cleavage was 1.41. C32U A78G G93A showed a self-cleavage of 0.44. Variant U39C A62U A91G U102C has a self-cleavage of 2.14. A13U U19A A111G showed a self-cleavage of 0.09. Work on U49A A63G A140G yielded a self-cleavage of 1.49. Work on A18G G20A A23G C77U A95G yielded a self-cleavage of 1.55. With A18C U72C U131C the self-cleavage was 0.12. U43C G75C A90G U108G gave a self-cleavage of 0.03. Work on U9C U19G G21A A116G G136A yielded a self-cleavage of 1.78. For U12G A56G U103A, the self-cleavage was 1.16. Work on A11G A98G U100C yielded a self-cleavage of 1.18. U3A A22G U39C A67G U100C gave a self-cleavage of 1.05. Variant A18U A24G A125G has a self-cleavage of 0.24. A63G G65A A86U showed a self-cleavage of 2.1. For U57C A89U A140G, the self-cleavage was 1.86. Variant A52G A59U U70C has a self-cleavage of 0.61. Variant A11G A24U U108C has a self-cleavage of 0.02. In the case of A24G A30C U122A, the self-cleavage is reported as 1.1. Variant G7A A22U A30G has a self-cleavage of 0.2. A5C C17U U49C A78G U127C U131C showed a self-cleavage of 0.22. For A33U A54G A126G, the self-cleavage was 1.98. In the case of A59U U127C U130C A140U, the self-cleavage is reported as 0.59. A27U A78G U103C A125G gave a self-cleavage of 0.01. G48A A60G G74C gave a self-cleavage of 0.04. Variant U43C A63U A68G has a self-cleavage of 1.57. Variant U38C C45U A64G A89U A125G has a self-cleavage of 0.72. In the case of A55G U122G A129G G138A, the self-cleavage is reported as 1.67. U9C A23U A94G U100C showed a self-cleavage of 2.63. Work on A56C U57C A95G yielded a self-cleavage of 1.76. A86G A96G U103C gave a self-cleavage of 1.41.
